B1: CPEB3 Ribozyme (parent)
chain: UAACAGGGGGCCACAGCAGAAGCGUUCACGUCGCAGCCCCUGUCAGAUUCUGGUGAAUCUGCGAAUUCUGCUGUAUAUCUC

The source gives no read counts; variants with many changes may rest on few reads.

The variants in the data set derive from B1. As to the kind of experiment: self-cleavage, relative activity (ratio to wild type); higher = more cleavage; in vitro, sequencing. Put shortly:
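Relative activity compares each variant's cleaved/total read fraction with that of the unmutated ribozyme. To get these fractions, barcoded CPEB3 ribozyme libraries from rounds of error-prone PCR were transcribed with T7 RNA polymerase for 5 hours at 37°C and then given 15 min of DNase I treatment before EDTA was added. The RNAs were reverse transcribed with template switching and sequenced on Illumina, and DNA sequencing linked barcodes to variants. A minimum of 5 reads applied, and three batches were averaged.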
With A5G A15G C23G U43A A64U U69G A77U, the self-cleavage was found to be 0.06. The value for A5C A13G U31C C37U U78A was 0.32; that for C4G A5G A20G U58C was 0.13; that for A3U G19C C40U U66A U69A was 0.06. For the variant A5C A15U U26C U66C G70A U72C, the self-cleavage was 0.22. A5G A15C A45U: the self-cleavage is 0.47. With C4A A5U U25C A45U G53A A56G U60A, the self-cleavage was determined as 0.25. The value for A5G A21G A45U U51A was 0.22; that for A5G A18G U43C A45U U48A was 0.27; that for A5G A13G A15U U78C U80C was 0.2.

In the case of A5G A13U A28G U31C, the self-cleavage was determined as 0.36.

As for A5G A13G U80C, the self-cleavage was found to be 0.58. A5C A20G G22U U74A: the self-cleavage was determined as 0.32.

Take A3U C40G U51C U60A A77U: the self-cleavage was determined as 0.14. The value for C4G A18G U51C A56G U58C U80C was 0.23; that for A5G A20G A75G was 0.6; that for A5C U49A U51A U69A was 0.23.

In the case of A5G A15U A57G, the self-cleavage came to 0.19. As for A3U U31C A47G U51A U60C, the self-cleavage was 0.16.

As for A3U C12U G30C C79A, the self-cleavage stood at 0.33. Consider A5C A45G A65G, for which the self-cleavage was determined as 0.5. Turning to A5C G10U G46U, the self-cleavage is 0.27. Turning to A5C G8U U43C U67C, the self-cleavage came to 0.12. For the variant A5G A15U A18U, the self-cleavage amounted to 0.4. For the variant C4U A35U U49C U54C U66C, the self-cleavage worked out at 0.19.

A5C A21G A45G U54A U60C U74C: the self-cleavage was 0.98. With A3U U51C U78C U80A, the self-cleavage is 0.86. The value for C4U C11U U48C U51A was 0.1; that for A5G A20G U26A A28G G30A was 0.28; that for C4U C23U U26C A35U U43C U49C was 0.2. On to A5G A15U C23U U69C U78C, for which the self-cleavage is 0.1.

On to A5C A28G C40U A47G U60C U72C, for which the self-cleavage came to 0.04. On to A5G A13U A20G U31C U41A, for which the self-cleavage came out at 0.12. The value for A5G A18G U54A U72A U76C U80A was 0.48. Consider C4A A45G U80C, for which the self-cleavage is 1.02. The value for A3U U26C A35U U66C U67C was 0.18.

In the case of A5G A13U A45G A47G, the self-cleavage was 0.4. The value for A3U G36A A77G was 0.35; that for C4A U26A U41C U51C was 0.76; that for A5G A13G C17U A20G was 0.35. A3U C14A A18U U43C A56U U66C: the self-cleavage is 0.28. The value for A3U G6C G30A A56G U72A U74C was 0.11.

Take A5G A15U A20G: the self-cleavage came to 0.45. The value for C4A U31C C34U U58C was 0.09; that for C4U C11G A21G U41A was 0.39; that for A5C A15G A45U U58C was 0.47. The value for A5G A13G U54C A65U U67C A77U U80C was 0.08; that for A5G A15U U80A was 0.17. With A3U C39G U48G A56U A65G the figure was 0.09; with A5C C12A A18G A35G U66A, 0.18. A3U U26A U51A U78C: the self-cleavage is 0.71. A5C A13U C27A A64G U74G U78A: the self-cleavage is 0.08. The value for A5G A13G U41A A57G U66C U72C was 0.13; that for A5G A18G U26A U66C was 0.25.

As to C4U C12U A28G A45G G53C A77G, the self-cleavage was found to be 0.73. With A5G A13U A15U the figure was 0.58. In the case of C4G C17G A28C G63A, the self-cleavage worked out at 0.24. With A5G A13U C29U U43A U67G C81U the figure was 0.07.

Take A3U C12U A13G A20G U25A U26C A56G: the self-cleavage stood at 0.05. With C4A C12G A45G U69A the figure was 0.54. Turning to A5G A20G U51A A64U U69C, the self-cleavage was 0.22. The value for A3U U49C C68U U78C was 0.26; that for A5C A18G U58C A77G was 0.19.

With A3U U26A U43A, the self-cleavage was found to be 0.51.

In the case of A5C U26C U41A U49C A65U, the self-cleavage was 0.09.

In the case of A5C A15C G42C, the self-cleavage worked out at 0.33. The value for A5G A28G A64G U76C was 0.41. Take A5G A13C A18G U31C: the self-cleavage was determined as 0.06. With A5G A21G U41C U54C the figure was 0.4; with A5G A13U A21G U26C, 0.19; with A5G A13G G22U U69C, 0.5. With A5G A15G A35G the figure was 0.7; with C4U A13G U58A, 0.4.

With A3U C12U G19C U51C G52C U67C, the self-cleavage is 0.1.

As to A3U U43C U49C, the self-cleavage amounted to 0.33. The value for A5G A15U C17G A28U A35G A64G was 0.09; that for A5G A21G C44U U54A was 0.52. Turning to A5G A13G G42U, the self-cleavage was 0.41.

As to A3U G19U U31C U51A A64U U69C, the self-cleavage was determined as 0.11. The value for A5G A21G A35G A45U U48C U66C U78C was 0.1.

Turning to A3U U41C G73A, the self-cleavage is 1.24. For the variant A3U U31C U72C C79U, the self-cleavage came out at 1.09. As to A3U U25A A64U U72A, the self-cleavage is 0.1. The value for C4U A13G A15G U25C A35U U48G was 0.09.

For the origin of these results see the RNAGym collection of RNA variant scans (doi:10.1093/nar/gkz1192).
